From PubChem BioAssay (NCI)
Some entries of the source have several records that differ or are many. This list holds those alone. Rule as the data show it: active = growth inhibition above about 70%; inactive = the rest. There may be further records. Results that share an entry repeat one measurement (runs, samples, wells, individuals or studies). More than one record can exist for a structure, and the calls need not agree.

Columns and labels:
[1] = NCI Yeast Anticancer Drug Screen. Data for the rad50 strain (AID 155);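 also: 0% = growth of vehicle-only cultures of the same strain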; settings: S. cerevisiae rad50 strain growth inhibition; at 50.0 µM; stronger effect = higher value
[2] = NCI Yeast Anticancer Drug Screen. Data for the mec2-1 strain (AID 157); settings: S. cerevisiae mec2-1 strain, at 50.0 µM, stronger effect = higher value
[3] = NCI Yeast Anticancer Drug Screen. Data for the sgs1 mgt1 strain (AID 161);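 also: 0% = growth of cultures given vehicle only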; settings: S. cerevisiae sgs1 mgt1 strain, at 50.0 µM, stronger effect = higher value
[4] = NCI Yeast Anticancer Drug Screen. Data for the cln2 rad14 strain (AID 165);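 also: 0% = growth equal to vehicle treated cultures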; settings: S. cerevisiae cln2 rad14 strain, at 50.0 µM, stronger effect = higher value
[5] = NCI Yeast Anticancer Drug Screen. Data for the bub3 strain (AID 167); settings: S. cerevisiae bub3 mutant strain, at 50.0 µM, stronger effect = higher value
[6] = NCI Yeast Anticancer Drug Screen. Data for the mlh1 rad18 strain (AID 175); settings: S. cerevisiae mlh1 rad18 strain growth inhibition; at 50.0 µM; stronger effect = higher value

| Structure (SMILES) | growth inhibition [1] | growth inhibition [2] | growth inhibition [3] | growth inhibition [4] | growth inhibition [5] | growth inhibition [6] |
| --- | --- | --- | --- | --- | --- | --- |
| COc1cccc2c1C(=O)c1c(O)c3c(c(O)c1C2=O)CC(O)(C(=O)CO)CC3OC1CC(N)C(O)C(C)O1 (configuration not stated) | inactive: 19.4, 13.1, 20.9, -25.3% and active: 74% [separate samples] | inactive: 14.9, 7.2, -2.25, -40.4, 27.4% [separate samples] | inactive: -0.4, -14.6, -16.8, -31.2, 32.6% [separate samples] | inactive: 15.4, -5.4, -12.3, -40.5, 25% [separate samples] | inactive: -27.1, -15.6, -10.6, -77, 48.9% [separate samples] | inactive: -8.45, -46.5, -29.1, -64.2% and active: 75.2% [separate samples] |
| COc1nc(N)c(N=CC(OC(C)=O)C(OC(C)=O)C(COC(C)=O)OC(C)=O)c(=O)n1C (configuration not stated) | inactive: 10.2, 29.9, 1.15, 36.2% [separate samples] | inactive: 63.2, 11.4, -2.05, 44% [separate samples] | inactive: 65, -6.2, -8.6, -2.05% [separate samples] | active: 77.4%, 95.2%, 90% and inactive: 0.35% [separate samples] | active: 91.8% and inactive: -7%, 9.1%, 44.3% [separate samples] | active: 76.5% and inactive: 17.9%, 0.9%, 67.8% [separate samples] |
